Assay results: PubChem BioAssay AID743449 (Broad Institute, 2014)
Where “and” joins values, the source holds several entries; their conditions need not be identical. Identical values can stand only once. Out of some 9,900 compounds screened, about 90 (0.9%) were called active. The shares of active, inactive and inconclusive entries below differ from those in the screen.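 The calls were made as follows: active = mean normalized replicate activity at least 50 and at least half of replicates each reaching 50; inconclusive = only one of the two criteria met; inactive = neither criterion met.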

test: reduction of CTGF mRNA in DLD1 cells – DLD1 colon cancer cells, RT-qPCR, single point, primary screen (AID 743449); settings: 24 h, at 12.5 µM, active compounds read high;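 also: 0% = neutral control wells and 100% = dasatinib control wells; higher means stronger suppression of CTGF expression like dasatinib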

Compound | inhibition
O=C(C[C@H]1CC[C@H]2[C@@H](COC[C@@H](O)CN2C(=O)Nc2ccccc2)O1)NCc1ccccc1F | inactive: 8.8%
O=C(c1cccc(F)c1)N1CCCCN2[C@@H](CO)[C@H](c3ccc(C#CC4(O)CCCC4)cc3)[C@@H]2C1 | active: 68.7%
O=C(c1cnccn1)N1C[C@@H]2N[C@H](C1)C2c1ccc(/C=C/c2ccccc2)cc1 (some centres not stated) | inactive: -30.1% and inactive: 19.5%
CO[C@@H]1CN(C)C(=O)c2ccc(NS(=O)(=O)c3ccc(C)cc3)cc2OC[C@H](C)N(C)C[C@@H]1C | inactive: -16.4%
C[C@@H]1CN([C@@H](C)CO)C(=O)CCCn2nncc2CO[C@@H]1CN(C)S(=O)(=O)c1ccc(Oc2ccccc2)nc1 | inconclusive: 42.4%
COC(=O)C[C@@H]1CC[C@@H]2[C@@H](COc3ccc(NC(=O)c4ccc(C(F)(F)F)cc4)cc3C(=O)N2C)O1 | inconclusive: 34.6%
C[C@@H]1CN([C@@H](C)CO)C(=O)c2ccccc2-c2ccccc2CO[C@@H]1CN(C)S(=O)(=O)c1cn(C)cn1 | active: 63%
CO[C@@H](CN(C)C(=O)Nc1ccc(Cl)cc1)[C@@H](C)CN(Cc1ccccc1Cl)[C@@H](C)CO | inconclusive: 45.6%
Cn1cnc(S(=O)(=O)N2[C@@H]3CNC[C@H]2C3c2ccc(/C=C/c3ccccc3)cc2)c1 (some centres not stated) | inconclusive: 26.8%
C[C@H]1CN([C@@H](C)CO)S(=O)(=O)c2ccc(-c3cncnc3)cc2O[C@@H]1CN(C)C(=O)NC1CCCC1 | inconclusive: 50%
C[C@@H]1CN([C@@H](C)CO)C(=O)c2c(c3ccccc3n2C)-c2ccccc2CO[C@H]1CN(C)S(=O)(=O)c1ccc([N+](=O)[O-])cc1 | inactive: 7.85%
C/C=C/c1cnc2c(c1)C(=O)N([C@H](C)CO)C[C@H](C)[C@H](CN(C)C(=O)Nc1cccc(OC)c1)O2 | inconclusive: 27.4%
Cc1ccccc1-c1cnc2c(c1)C(=O)N([C@@H](C)CO)C[C@H](C)[C@H](CN(C)Cc1ccccc1F)O2 | inconclusive: 46.5%
O=C(NCC[C@H]1CC[C@H](NC(=O)C2CCOCC2)[C@H](CO)O1)c1cc(Cl)cc(Cl)c1 | inconclusive: 14.8%
CNC[C@H]1Oc2c(NC(=O)Nc3cccc4ccccc34)cccc2C(=O)N([C@@H](C)CO)C[C@H]1C | inactive: -2.92%
COc1ccc(CNC(=O)C[C@H]2CC[C@H](NC(=O)CN(C)C)[C@H](CO)O2)cc1 | inconclusive: 37.4%
O=C(Nc1cccc(F)c1)N1CCCCN2[C@H](C1)[C@H](c1ccc(C#Cc3cccnc3)cc1)[C@@H]2CO | inconclusive: 49.6%
CN1C(=O)c2cc(NS(=O)(=O)c3ccccc3F)ccc2OC[C@H]2O[C@H](CC(=O)NC3Cc4ccccc4C3)CC[C@H]21 | inactive: -1.53%
COc1ccc(NC(=O)N2CC(=O)N3[C@H](C2)[C@@H](c2ccc(Br)cc2)[C@@H]3CO)cc1 | inconclusive: 23.6%
O=C(Nc1ccc(F)cc1)N1CC(=O)N2[C@H](C1)[C@@H](c1ccc(-c3cccc(F)c3)cc1)[C@@H]2CO | inactive: -72.3%
CCCNC(=O)N1[C@H](C#N)[C@H](c2ccc(C#Cc3cccc(F)c3)cc2)[C@H]1CO | inactive: 12.2%

Compound | inhibition
COc1ccccc1-c1ccc([C@H]2[C@@H](CO)N3CCCCN(C(=O)c4cccnc4)C[C@@H]23)cc1 | inconclusive: 33%
COc1ccccc1-c1ccc([C@H]2[C@@H](CO)N(CC3CC3)C23CN(S(C)(=O)=O)C3)cc1 | inconclusive: 37.9%
N#C[C@@H]1[C@@H](c2ccccc2)[C@@H](CO)N1C(=O)c1cc(Cl)cc(Cl)c1 | inconclusive: 33.5%
CCC(=O)N1C[C@@H](C)[C@@H](OC)CN(C)C(=O)c2cc(NC(=O)Nc3ccc(Cl)cc3)ccc2OC[C@@H]1C | inactive: 15%
COc1ccccc1-c1ccc2c(c1)[C@@H]1[C@@H](CCN1S(=O)(=O)c1ccc(C)cc1)[C@H](CO)N2 | inactive: 37.4%
C[C@H](CO)N1C[C@H](C)[C@H](CN(C)Cc2ccc3c(c2)OCCN3C)OCc2ccccc2-c2ccccc2C1=O | inactive: -137%
C[C@@H]1CN([C@H](C)CO)C(=O)c2cccc(NC(=O)c3nc4ccccc4s3)c2O[C@H]1CN(C)C(=O)Nc1ccc2c(c1)OCO2 | active: 73%
CCCC(=O)N1CC2(C1)CN(Cc1ccccc1F)[C@@H](CO)c1c2c2ccc(OC)cc2n1C | inconclusive: 31.4%
C[C@@H]1CN([C@H](C)CO)C(=O)CCCn2nncc2CO[C@H]1CN(C)Cc1ccc2cccnc2c1 | inconclusive: 27.4%
C[C@@H]1CN([C@H](C)CO)C(=O)c2c(c3ccccc3n2C)-c2ccccc2CO[C@@H]1CN(C)C(=O)NC1CCCCC1 | inconclusive: 42.6%
COc1ccc2c3c(n(C)c2c1)[C@@H](CO)N(Cc1ccncc1)CC31CN(C(=O)C2CCCCC2)C1 | inactive: 2.18%
O=C(c1cccc(F)c1)N1CCCCN2[C@H](CO)[C@@H](c3ccc(C#CC4(O)CCCC4)cc3)[C@@H]2C1 | inactive: -4.53%
C[C@@H]1CN([C@H](C)CO)C(=O)c2ccccc2-c2ccccc2CO[C@@H]1CN(C)Cc1ccc(Oc2ccccc2)cc1 | active: 83.9%
CCC(=O)N1C[C@H](C)[C@@H](OC)CN(C)C(=O)c2cc(NC(=O)Nc3ccc(Cl)cc3)ccc2OC[C@@H]1C | active: 59.6%
O=C(Nc1ccc2c(c1)[C@H]1C[C@@H](CC(=O)N3CCc4ccccc4C3)O[C@H](CO)[C@H]1O2)c1ccc2c(c1)OCO2 | active: 56.2%
N#Cc1cccc(-c2ccc3c(c2)[C@@H]2[C@@H](CCN2S(=O)(=O)c2ccc(F)cc2)[C@H](CO)N3)c1 | active: 63%
COc1ccccc1C#Cc1ccc([C@@H]2[C@@H](CO)N3CCCCN(C(=O)C4CCC4)C[C@@H]23)cc1 | inconclusive: 49.6%
COc1cccc(NC(=O)N[C@H]2CC[C@@H](CC(=O)N3CCN(C)CC3)O[C@@H]2CO)c1 | inactive: -6.95%
COCCNC(=O)C[C@H]1CC[C@H]2[C@@H](COc3ccc(NS(=O)(=O)c4ccc(Cl)cc4)cc3C(=O)N2C)O1 | inconclusive: -2.3%
COc1ccc(CN(C)C[C@H]2Oc3ccc(NC(=O)Nc4ccc5c(c4)OCO5)cc3CC(=O)N([C@@H](C)CO)C[C@H]2C)cc1 | active: 57.9%
COc1ccc2c3c(n(C)c2c1)[C@@H](CO)N(CC1CC1)CC31CN(S(=O)(=O)c2cn(C)cn2)C1 | inactive: 10%

Compound | inhibition
CO[C@@H]1CN(C)C(=O)c2cc(NC(=O)c3nc4ccccc4s3)ccc2OC[C@@H](C)NC[C@@H]1C | inconclusive: 42.5%
C[C@@H]1CN([C@@H](C)CO)C(=O)CCCn2nncc2CO[C@@H]1CN(C)S(=O)(=O)c1ccccc1C#N | inconclusive: 17.6%
CCS(=O)(=O)Nc1ccc2c(c1)C(=O)N(C)[C@@H]1CC[C@H](CC(=O)N3CCN(C)CC3)O[C@H]1CO2 | inactive: 0.381%
C[C@H](CO)N1C[C@H](C)[C@H](CN(C)C(=O)Nc2ccc3c(c2)OCO3)Oc2c(NC(=O)c3nc4ccccc4s3)cccc2C1=O | inactive: 14.1%
C[C@H](CO)N1C[C@H](C)[C@H](CN(C)Cc2ccc(Cl)c(Cl)c2)Oc2ccc(NC(=O)C3CCCCC3)cc2CC1=O | inconclusive: 36.6%
O=C(c1ccccn1)N1CC2(C1)[C@H](c1ccccc1)[C@H](CO)N2C(=O)C1CCCCC1 | inconclusive: 24.9%
COc1ccccc1C#Cc1ccc([C@H]2[C@@H](CO)N3CCCCN(C(=O)C4CCC4)C[C@@H]23)cc1 | inconclusive: 37.6%
COc1ccccc1-c1ccc2c(c1)[C@H]1[C@H](CCN1S(=O)(=O)c1ccc(C)cc1)[C@@H](CO)N2 | inactive: 17.3%
COc1cccc(S(=O)(=O)N[C@H]2CC[C@@H](CC(=O)NC3Cc4ccccc4C3)O[C@H]2CO)c1 | inactive: 0.76%
C/C=C/c1ccc([C@@H]2[C@@H](CO)N(c3nc(CC)cs3)[C@H]2C#N)cc1 | inconclusive: 44%
COc1ccc(S(=O)(=O)Nc2ccc3c(c2)C(=O)N([C@H](C)CO)C[C@H](C)[C@H](CN(C)S(=O)(=O)c2ccc(Cl)cc2)OCCCC[C@@H](C)O3)cc1 | inactive: -2.26%
O=C(C[C@H]1CC[C@H]2NC[C@H](O)COC[C@@H]2O1)N1CCc2ccccc2C1 | inactive: 1.25%
CC(=O)N1[C@@H](CO)[C@@H](c2ccc(C3=CCCC3)cc2)C12CN(C(=O)NC(C)C)C2 | inconclusive: 31.8%
CCCC(=O)N1CC2(CCN(S(C)(=O)=O)CC2)c2c([nH]c3cc(OC)ccc23)[C@@H]1CO | inconclusive: 40.2%
COc1ccc(-c2ccc([C@@H]3[C@H](CN(C)S(C)(=O)=O)N[C@@H]3CO)cc2)cc1 | inconclusive: 38.2%
CO[C@H]1CN(C)C(=O)c2cc(NC(=O)NC3CCCCC3)ccc2OC[C@H](C)N(CC2CCOCC2)C[C@@H]1C | inconclusive: 19.9%
COCC(=O)N1CC2(C1)CN(C(=O)Nc1ccccc1F)[C@@H](CO)c1[nH]c3cc(OC)ccc3c12 | inconclusive: 11.6%
C/C=C/c1ccc([C@@H]2[C@@H](CO)N(CC3CCCC3)C23CN(S(=O)(=O)CC)C3)cc1 | inactive: -26.7%
CN1C(=O)c2cc(NC(=O)Cc3cccs3)ccc2OC[C@H]2O[C@@H](CC(=O)N[C@H]3CCN(Cc4ccccc4)C3)CC[C@@H]21 | inconclusive: 31.9%
O=C(CN1CCOCC1)N[C@@H]1CC[C@@H](CCn2cc(C3CC3)nn2)O[C@H]1CO | inactive: -8.58%
